# Laboratory results as given in article PMC12136788.
# The list shows a part of the results.
# B1: chr1:231223762:231225466:-|three_prime_utr|ENSG00000143633|control|control|control (ssRNA)
# RNA: GGGAGUUCUACAGUCCGACGAUCAUCUGGAUGAACCUACUGAUGAGUUCUGACAAGGACGCCUUGAAUGUAUGUGGUGUUGCUAGCCCAUUAGAGCGCUUCACUGUCUCUCAUUUAUCCUUGUCAAAGUAGGAUUUAGUAAACCAACAGAGGAUUGAGCAUCA
# B2: ENSG00000070961:be:win_1251|CDS|ENSG00000070961|bound_else_gene|NA|bound_elsewhere_windowed (ssRNA)
# RNA: GGGAGUUCUACAGUCCGACGAUCGAAGUUCUUCAUUAUUGGAGUUACAGUUUUAGUGGUCGCAGUGCCAGAAGGUCUUCCACUUGCAGUCACGAUCUCACUGGCUUAUUCAGUCAAAAAAAUGAUGAAAGAUAAUAACUUAGUCAACAGAGGAUUGAGCAUCA
# B3: chr8:38210266:38210373:+|CDS|ENSG00000156735|unk|total|mutant (ssRNA)
# RNA: GGGAGUUCUACAGUCCGACGAUCAAAAAUCAUACAUGUGCUGGAGAAGGUCCAGUAUCUUGAACAAGAAGCCGAAGAAUUUGCCGGAAAAAAGACAGACAAAGCAUACUGGCUUCUGGAAGAAAUGCUAACCAAGGAACUUUUCAACAGAGGAUUGAGCAUCA
# B4: chr1:179105649:179105771:-|3pUTR|ENSG00000143322|msi1|FALSE|bound_elsewhere (ssRNA)
# RNA: GGGAGUUCUACAGUCCGACGAUCAGAAAGGAAACCUUGAUUCUUACCAUUGCUGCUCCAAAGGAGGCCCAGGUUAAGAGGAUUAGAGGAGACACGCGGUGCUGGGCAUUCCUGGCAGGUGUUGGGUGAUCCCCGCAGUAUGUCCAACAGAGGAUUGAGCAUCA
# B5: ENSG00000070961:be:win_901|CDS|ENSG00000070961|bound_else_gene|NA|bound_elsewhere_windowed (ssRNA)
# RNA: GGGAGUUCUACAGUCCGACGAUCAAAGAUGAGAAGAAAAAGGAAAAGAAAAAUAAGAAACAAGAUGGAGCUAUUGAGAAUCGCAACAAAGCAAAAGCCCAGGAUGGUGCAGCCAUGGAAAUGCAGCCAUUGAAGAGUGAAGAACAACAGAGGAUUGAGCAUCA
# B6: chr5:141515046:141515147:-|3pUTR|ENSG00000131504|msi1_unk|total|mutant (ssRNA)
# RNA: GGGAGUUCUACAGUCCGACGAUCAAAAAGAGAGAGAGAGAGAGGUGUGAGGGACAAAAUGCAAACCUAUUUCCCUUGCCUCACCGGCUUCUGGGAUGUCAUCACCUCCAGUUUGUUGGUUUUGUUUCCAACUGUUAAUAAAGCCAACAGAGGAUUGAGCAUCA
# Molecular target: T1, UNK ZnF1-6 (called full-length) (human, UniProt Q9C0B0 30-357)
# T1 sequence: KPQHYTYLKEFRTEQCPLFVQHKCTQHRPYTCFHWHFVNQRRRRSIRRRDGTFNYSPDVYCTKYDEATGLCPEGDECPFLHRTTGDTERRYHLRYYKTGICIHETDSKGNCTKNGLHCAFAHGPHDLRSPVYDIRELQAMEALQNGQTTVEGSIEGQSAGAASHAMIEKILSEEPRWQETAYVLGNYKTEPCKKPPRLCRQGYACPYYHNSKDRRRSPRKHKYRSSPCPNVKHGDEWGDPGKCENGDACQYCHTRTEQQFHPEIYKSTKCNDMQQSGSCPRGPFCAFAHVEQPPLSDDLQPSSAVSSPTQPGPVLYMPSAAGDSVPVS
# Assay: nsRBNS (natural sequence RNA bind-n-seq); RBNS binding buffer (assumed for nsRBNS): 25 mM Tris pH 7.5, 150 mM KCl, 3 mM MgCl2, 0.01% Triton X-100, 500 ug/ml BSA, 20 U/ml SUPERase-In, 4 C; UNK is unkempt and MSI1 is Musashi-1; names of the RNAs are library labels; protein concentration not given here; high values mean tight binding
row,Binder,binding signal [enrichment R]
1,B1,0.524
2,B2,0.339
3,B3,0.331
4,B4,0.777
5,B5,0.832
6,B6,0.65
